The values below come from article PMC9352240.

The assay deals with recombinant full-length wild-type human tau isoform 2N3R (human) (UniProt P10636). In words: thioflavin T fluorescence aggregation kinetics; self-aggregation of recombinant tau alone; 30 uM tau, 60 ug/ml heparin, 10 uM ThT, 20 mM Tris pH 7.4, 37°C; t1/2 = time to half maximum ThT intensity.

On to “recombinant full-length wild-type human tau isoform 2N3R (a stretch of the chain, letters omitted) (natural protein; other documents disagree on this pair)”, for which the t1/2 of self-aggregation (ThT fluorescence) was determined as 4.2 h.
